# Data reported in PubChem BioAssay AID652106 (National Center for Advancing Translational Sciences (NCATS), 2013).
# The campaign covered roughly 370,000 compounds. About 500 (0.14%) were called active. Inconclusive results, whose numbers are uncertain, are shown with a selection of clear calls. Calls come from the whole dose curve; as a rule, active = well fitted activation curve with a large enough effect; inconclusive = small, poorly fitted or top-dose-only effect; inactive = no such curve, though single readings can be large or run the other way. Potencies of inconclusive entries are left out as doubtful fits.
# Test: qHTS of alpha-syn Inhibitors; note: nearly all actives have a fitted effect of over 65% in size; for growth rescue (activation): % of control where 0% means no effect
# Settings: Yeast expressing alpha-synuclein, BacTiter-Glo, 24 h; Potency: growth rescue unless noted; growth rescue (activation): at 46.1 µM (top of the series) unless noted
# Procedure, shortened: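 Rescue of yeast growth: cells expressing toxic alpha-synuclein, induced in galactose at OD600 0.02, incubated with compound 24 h at 30 C. ATP luminescence quantified growth; inhibitors of toxicity appear as activators.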
# Potency is the fitted concentration of half-maximal effect; tags give direction and shape of the fitted curve.
SMILES,Potency,growth rescue (activation)
O=C(NCCCOc1ccc([N+](=O)[O-])cc1Cl)OCc1ccccc1,"inconclusive [activator, single point]",–
CCOC(=O)N1CCC(NC(=O)CSCc2nc(-c3ccc(OC)c(OC)c3)oc2C)CC1,–,inactive: -1.38%
O=C(Cc1cccs1)Nc1cccc(-c2nc3ccccc3o2)c1,"inconclusive [activator, single point]",–
CCOC(=O)Oc1ccc2c(c1)C(C)=CC(C)(C)N2C(=O)OCC,–,inactive: 15.2%
Cc1ccc(Cl)cc1NS(=O)(=O)c1ccc2c(c1)NC(=O)CCS2,–,inactive: 6.94%
Cc1ccc(Cc2c(-c3ccc(C#N)cc3)nc3ccc(Cl)cn23)cc1,"inconclusive [activator, single point]",–
O=C(COC(=O)c1ccc(-c2ccc([N+](=O)[O-])cc2)o1)NC(=O)NC12CC3CC(CC(C3)C1)C2,–,inactive: -1.56%
Cc1ccc(-c2nc3cc(NS(=O)(=O)c4ccc(C)cc4)ccc3o2)cc1,"inconclusive [activator, single point]",–
COc1cc(NC(=S)NCCN2CCOCC2)cc(OC)c1OC,–,inactive: -9.45%
Cc1ccc(Oc2ccc(NC(=O)CCC(=O)OCC(=O)c3cccs3)cc2)cc1C,–,inactive: -10.8%
c1coc(-c2cc3nc(NCc4ccc5c(c4)OCO5)ccn3n2)c1,–,inactive: 6.34%
O=[N+]([O-])c1ccc(CSc2ccc(S(=O)(=O)N3CCCCC3)cn2)cc1,"inconclusive [activator, single point]",–
C[C@@H]1C(c2cccc(Cl)c2)=NN(c2ccc(Br)cc2)[C@H]1C(=O)N1CCOC1=O,"inconclusive [activator, single point]",–
Cc1cn([C@H]2C[C@H](O)[C@@H](CCC(=O)NCCCc3ccccc3)O2)c(=O)[nH]c1=O,"inconclusive [activator, single point]",–
COc1ccc(C(C)(C)C)cc1NC(=O)c1c(C)noc1C,"inconclusive [activator, single point]",–
CCCCC(=O)Nc1nnc(S(=O)(=O)N(CC)c2ccccc2)s1,"inconclusive [activator, single point]",–
CC1=CC(C)(C)Nc2ccc(OC(=O)CCN3C(=O)c4ccccc4C3=O)cc21,"inconclusive [activator, single point]",–
O=C(c1ccc(C(F)(F)F)cc1)N1CCC(=O)N(C(COCc2ccc(Cl)cc2)Cc2ccccc2)CC1 (stereo not given),"inconclusive [activator, single point]",–
Nc1ccccc1C(=O)/C=C/c1ccc2c(c1)OCO2,–,inactive: -3.14%
CCOc1ccc2c(c1)-c1c(ssc1=S)C(C)(C)N2C(=O)CSC1=NCCS1,–,inactive: -0.555%
COc1ccccc1NCCC(=O)OCC(=O)NCc1ccco1,–,inactive: 3.91%
Cc1c(C(=O)N2CCCCC2C)sc2ncnc(N3CCc4ccccc4C3)c12 (stereo not given),–,inactive: 0.536%
O=C(NCc1cccs1)C1Cc2c(-c3ccc(Cl)cc3)ccnc2O1 (stereo not given),"inconclusive [activator, single point]",–
O=C(COC(=O)C1CCC1)NCc1ccc(F)cc1,–,inactive: -5.07%
CCCCCCCCOC(=O)c1nc(Cl)c(Cl)c(N)c1Cl,–,inactive: -12.2%

SMILES,Potency,growth rescue (activation)
Cc1ccccc1-n1c(SC(C)C(=O)NCC2CCCO2)nnc1-c1ccncc1 (stereo not given),–,inactive: -2.93%
Cc1cccc(/C=N/Nc2nncc3ccccc23)c1,–,inactive: -8.24%
Nc1ccc(-c2nc3ccccc3s2)cn1,"inconclusive [activator, single point]",–
O=C(Nc1cccc2ccccc12)N1CC=CCC1,–,inactive: -3.2%
Cc1ccsc1/C=N/Nc1ccc(F)cc1F,"inconclusive [activator, single point]",–
Cc1ccnc(NC(=O)c2ccccc2NC(=O)c2ccccc2)c1,–,inactive: -20.7%
Cc1cc(NC(=O)CSc2nc3c([nH]c4ccccc43)c(=O)n2-c2cccc(Cl)c2)no1,"inconclusive [activator, single point]",–
CC(=O)c1c(O)cc(C)n(Nc2nc(C)cc(C)n2)c1=O,–,inconclusive: 169% [activator]
O=C(CSc1cccc[n+]1[O-])CSc1cccc[n+]1[O-],–,inconclusive: -70.3% [activator]
Cc1ccc(C(=O)Nc2nc(-c3ccccn3)cs2)s1,active: 3.55 µM,–
CNC(=O)c1cc2c(n(-c3ccc(C)cc3)c1=O)CC(C)(C)CC2=O,"inconclusive [activator, single point]",–
N/C(=N\OC(=O)c1cccc(Br)c1)c1ccccc1,–,inactive: -22.4%
COc1ccc(-c2[nH]c(-c3ccccc3)nc2SCC(=O)NC2CCCC2)cc1,–,inactive: 2.55%
Oc1c(C(Nc2cccc(C(F)(F)F)c2)c2cccnc2)ccc2cccnc12 (stereo not given),"inconclusive [activator, single point]",–
O=C(N/N=C\c1ccccn1)C1COc2cc3ccccc3cc2O1 (stereo not given),active: 20 µM,–
NC(=O)c1sc2nc(N3CCOCC3)c3c(c2c1N)CCCC3,–,inactive: 14.1%
COC(=O)[C@@]12C[C@@H](CC(=O)NCc3cccc4ccccc34)C(=O)N(Cc3ccc4c(c3)OCO4)C1=CCC(C)(C)C2,–,inactive: 16.2%
Cc1cccc(OCCN2C(=O)c3ccccc3C2=O)c1,"inconclusive [activator, partial curve]",–
CC(C)CNC(=S)N(CCO)Cc1cc2cc3c(cc2[nH]c1=O)OCO3,–,inactive: 1.28%
COc1ccc(C(=O)NC(c2ccc(OC)c(OC)c2)c2cc(Cl)c3cccnc3c2O)cc1 (stereo not given),"inconclusive [activator, single point]",–
COC(=O)[C@]12CCCCC=C1N(Cc1ccco1)C(=O)[C@H](CC(=O)NCc1cccs1)C2,"inconclusive [activator, single point]",–
COc1cc(NC(=O)c2cccc(Cl)c2)c(OC)cc1NC(=O)CN1CCCCC1,"inconclusive [activator, single point]",–
CCc1nonc1NC(=O)COc1cc(C)c(Cl)c(C)c1,–,inactive: -6.52%
COCCCn1c(=N)c(S(=O)(=O)c2ccccc2)cc2c(=O)n3cccc(C)c3nc21,–,inactive: 26.2%
COc1ccc(OCc2nnc(SCC(=O)N3C(C)CCCC3C)o2)cc1 (stereo not given),"inconclusive [activator, single point]",–

SMILES,Potency,growth rescue (activation)
CC(C)N(C(=O)CSc1nc2c([nH]1)c(=O)n(C)c(=O)n2C)c1ccccc1,–,inactive: 1.18%
COc1ccccc1N1CCN(C(=O)CCSCc2ccccc2F)CC1,–,inactive: -0.45%
CCOC(=O)c1sc2nccc(OC)c2c1N=CNOC,"inconclusive [activator, single point]",–
[O-][n+]1cccc2c(Br)cc(Br)c(O)c21,"inconclusive [activator, single point]",–
CC(=O)Nc1ccc(NS(=O)(=O)c2ccc(-c3cnc(C4CC4)o3)cc2)cc1,–,inactive: -2.13%
CCOC(=O)C1(C(N)=O)OC1(c1ccc(Cl)cc1)c1ccccc1Cl (stereo not given),–,inactive: 7.58%
O=C(Nc1ccc2ccccc2c1)C(c1ccccc1)n1c(=O)c(-c2cc3ccccc3[nH]2)nc2ccccc21 (stereo not given),"inconclusive [activator, partial curve]",–
CCC(C)(C)n1nnnc1C(c1cccnc1)N1CCN(c2cccc(C(F)(F)F)c2)CC1 (stereo not given),"inconclusive [activator, single point]",–
CC(C)(C)C(=O)Nc1ccc(S(=O)(=O)Nc2nccs2)cc1,"inconclusive [activator, single point]",–
Cc1ccc(Sc2cnccc2C#N)cc1,–,inactive: -2.57%
Cc1cccc(C)c1NC(=O)C(CCc1ccccc1)n1c(=O)c(-c2cc3ccccc3[nH]2)nc2ccccc21 (stereo not given),"inconclusive [activator, partial curve]",–
CCO[C@@H]1OC(C(=O)N2CCN(Cc3ccccc3)CC2)=C[C@H](c2ccc(Br)cc2)[C@H]1CCCO,"inconclusive [activator, single point]",–
CN(CC(=O)O)S(=O)(=O)c1ccc2c(c1)n(C)c(=O)c(=O)n2C,–,inactive: -10.9%
CCn1c(C)cc(C(=O)CN2C(=O)c3ccccc3S2(=O)=O)c1C,"inconclusive [activator, single point]",–
CCc1cc(-c2cnnn2Cc2ccccc2)ccc1-c1cn(CC(C)C)nn1,"inconclusive [activator, single point]",–
Cc1cccc(C(C#N)c2nc3ccccc3nc2C(F)(F)F)c1 (stereo not given),"inconclusive [activator, single point]",–
N#Cc1c(NC(=O)C2CC(c3c(F)cccc3Cl)=NO2)sc2c1CCC2 (stereo not given),–,inactive: 6.55%
COc1ccc(N(Cc2ccccc2)C(=O)c2ccccc2[N+](=O)[O-])cc1,"inconclusive [activator, single point]",–
CCOc1cc(NC(=O)Nc2ccc(F)cc2)c(OCC)cc1NC(=O)CC,"inconclusive [activator, single point]",–
Cc1ccc2nnn(Cc3cccc(C(C)(C)C)c3O)c2c1,"inconclusive [activator, single point]",–
O=C(CN1C(=O)COc2ccc(S(=O)(=O)N3CCCC3)cc21)N1CCN(c2ccccc2F)CC1,–,inactive: -1.81%
c1ccc(-c2nnc3sc(-c4csc5c4CCCC5)nn23)cc1,–,inactive: 1.74%
O=C(c1ccc(-n2cccn2)cc1)N1CCc2c([nH]c3ccccc23)C1c1ccccn1 (stereo not given),"inconclusive [activator, single point]",–
CCn1c(SCC(=O)Nc2nccc(C)n2)nc2ccccc21,–,inactive: 2.27%
CCOC1=C2[C@@H](CN(S(=O)(=O)c3ccc(C)cc3)[C@H]2c2cccs2)[C@H]2C(=O)N(c3ccccc3)C(=O)[C@H]2C1,"inconclusive [activator, single point]",–
